This note sets out measurements from PMC8441365.

Amino acid sequences for entries named in this document (tags omitted).
UniProt Q969U6: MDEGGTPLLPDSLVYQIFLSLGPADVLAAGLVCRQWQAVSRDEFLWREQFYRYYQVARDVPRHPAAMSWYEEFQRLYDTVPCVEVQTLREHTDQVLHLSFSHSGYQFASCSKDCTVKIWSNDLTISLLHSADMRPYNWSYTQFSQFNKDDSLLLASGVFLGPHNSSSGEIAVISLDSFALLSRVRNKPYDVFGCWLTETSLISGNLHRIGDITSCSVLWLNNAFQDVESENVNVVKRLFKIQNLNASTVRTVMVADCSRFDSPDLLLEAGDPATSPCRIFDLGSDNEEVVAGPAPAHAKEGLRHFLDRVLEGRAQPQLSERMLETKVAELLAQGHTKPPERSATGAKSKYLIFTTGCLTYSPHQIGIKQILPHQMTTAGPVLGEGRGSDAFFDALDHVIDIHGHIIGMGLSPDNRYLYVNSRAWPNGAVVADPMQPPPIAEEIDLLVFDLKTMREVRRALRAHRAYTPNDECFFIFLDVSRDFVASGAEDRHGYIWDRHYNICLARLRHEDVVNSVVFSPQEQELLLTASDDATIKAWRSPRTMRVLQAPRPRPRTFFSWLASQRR
UniProt Q969H0: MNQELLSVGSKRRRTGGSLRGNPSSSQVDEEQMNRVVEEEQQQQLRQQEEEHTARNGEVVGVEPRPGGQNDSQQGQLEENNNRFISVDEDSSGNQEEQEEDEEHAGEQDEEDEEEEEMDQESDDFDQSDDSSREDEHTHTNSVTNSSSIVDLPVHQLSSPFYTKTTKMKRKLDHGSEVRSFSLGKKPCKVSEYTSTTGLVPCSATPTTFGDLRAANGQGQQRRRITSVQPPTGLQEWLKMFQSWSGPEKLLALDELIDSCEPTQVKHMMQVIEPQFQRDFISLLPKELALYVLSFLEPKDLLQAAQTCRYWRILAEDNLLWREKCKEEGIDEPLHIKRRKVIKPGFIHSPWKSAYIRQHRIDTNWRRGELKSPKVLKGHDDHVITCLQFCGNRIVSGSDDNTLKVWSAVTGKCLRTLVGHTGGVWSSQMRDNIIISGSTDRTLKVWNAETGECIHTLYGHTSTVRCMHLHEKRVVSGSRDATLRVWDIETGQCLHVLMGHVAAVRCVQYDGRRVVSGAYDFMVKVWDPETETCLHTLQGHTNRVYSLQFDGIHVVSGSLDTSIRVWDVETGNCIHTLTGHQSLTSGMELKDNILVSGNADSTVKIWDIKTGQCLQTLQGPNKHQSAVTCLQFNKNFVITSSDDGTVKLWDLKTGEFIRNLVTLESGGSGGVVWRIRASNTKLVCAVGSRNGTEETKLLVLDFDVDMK

No constants are given. Whether binding was seen depends on the method and setting. Binding seen in cells or lysates may run through a third protein. Some entries that bind do so weakly or less than the wild type. For some assays here: Sequences can lack the tags named with a protein.

The target in experiment [1] is Flag-Fbxw5 (human) (UniProt Q969U6). Nature of the experiment: co-IP; exogenously expressed Flag-Fbxw5 precipitated with anti-Flag antibodies, eluted with FLAG-peptide, TCA precipitated; endogenous partners detected by Western blot (Fig EV1C).
The target of experiment [2] is HaloTag(HT)-tagged Fbxw5 (human) (UniProt Q969U6). Nature of the experiment: FRET or BRET; NanoBRET in living HeLa cells; NanoLuc fusion as donor, HaloTag fusion with 618 ligand as acceptor; corrected NanoBRET ratio. (Bioluminescence resonance energy transfer reports proximity on the nanometre scale.)
The target in experiment [3] is endogenous Fbxw5 (human (endogenous in RPE-1)) (UniProt Q969U6). Nature of the experiment: co-IP; endogenous proteins; anti-Fbxw5 IgG or unspecific rabbit IgG with Protein A agarose, lysis buffer with 0.4% NP-40; Fig 2D: RPE-1 cells asynchronous or arrested 24 h with 2 mM HU, 10 µM RO-3306 or 75 ng/ml nocodazole; Fig EV1D: cell line not stated.
Experiment [4] has as its target Fbxw7 (tagged, Hek293T) (human) (UniProt Q969H0). The experiment can be described thus: co-IP; tagged proteins expressed in Hek293T cells, extracts subjected to anti-Flag IP (FLAG-agarose, 3 h; lysis buffer 20 mM HEPES pH 7.3, 110 mM K-acetate, 0.2% NP-40), Western blot. On the technique in general: Immunoblotting shows a protein as a band on a membrane.
Experiment [5] addresses Flag-Fbxw5 (human) (UniProt Q969U6). The description is as above.

B1: endogenous CSRP2 (protein, UniProt Q16527 1-193)
chain: MPVWGGGNKCGACGRTVYHAEEVQCDGRSFHRCCFLCMVCRKNLDSTTVAIHDEEIYCKSCYGKKYGPKGYGYGQGAGTLNMDRGERLGIKPESVQPHRPTTNPNTSKFAQKYGGAEKCSRCGDSVYAAEKIIGAGKPWHKNCFRCAKCGKSLESTTLTEKEGEIYCKGCYAKNFGPKGFGYGQGAGALVHAQ
Regarding B1, the binding result with Flag-Fbxw5 (human) [1] is listed as “binds”.

B2: MCAK fused to NanoLuc luciferase (protein, UniProt Q99661 1-725)
chain: MAMDSSLQARLFPGLAIKIQRSNGLIHSANVRTVNLEKSCVSVEWAEGGATKGKEIDFDDVAAINPELLQLLPLHPKDNLPLQENVTIQKQKRRSVNSKIPAPKESLRSRSTRMSTVSELRITAQENDMEVELPAAANSRKQFSVPPAPTRPSCPAVAEIPLRMVSEEMEEQVHSIRGSSSANPVNSVRRKSCLVKEVEKMKNKREEKKAQNSEMRMKRAQEYDSSFPNWEFARMIKEFRATLECHPLTMTDPIEEHRICVCVRKRPLNKQELAKKEIDVISIPSKCLLLVHEPKLKVDLTKYLENQAFCFDFAFDETASNEVVYRFTARPLVQTIFEGGKATCFAYGQTGSGKTHTMGGDLSGKAQNASKGIYAMASRDVFLLKNQPCYRKLGLEVYVTFFEIYNGKLFDLLNKKAKLRVLEDGKQQVQVVGLQEHLVNSADDVIKMIDMGSACRTSGQTFANSNSSRSHACFQIILRAKGRMHGKFSLVDLAGNERGADTSSADRQTRMEGAEINKSLLALKECIRALGQNKAHTPFRESKLTQVLRDSFIGENSRTCMIATISPGISSCEYTLNTLRYADRVKELSPHSGPSGEQLIQMETEEMEACSNGALIPGNLSKEEEELSSQMSSFNEAMTQIRELEEKAMEELKEIIQQGPDWLELSEMTEQPDYDLETFVNKAESALAQQAKHFSALRDVIKALRLAMQLEEQASRQISSKKRPQ
Consider B2, for which, in experiment [2], the binding result was “binds”.

B3: endogenous MCAK (protein, UniProt Q99661 1-725)
chain: B2 chain
With B3, the binding result in experiment [3] was “binds”.

B4: HA-MCAK (protein, UniProt Q99661 1-725)
chain: B2 chain
Consider B4, for which the values for the binding result (in experiment [4]; with Flag-Fbxw5 (human) [5]) were “no binding” and “binds”, respectively.
